{
  "source": "paper PMC4336329",
  "about": "(PLoS ONE, 2015)",
  "note": "Screen size: about 310,000 compounds; about 14,000 (4.5%) showed an effect of 50% or more. Effects have a minus sign here. The list shows a part of the results.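 Further: peak tail current of the secondary pulse compared with the same well before compound.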",
  "data": [
    {"target": "human ether-à-go-go-related gene (hERG) potassium channel (human, UniProt Q12809)", "sequence (Q12809 whole entry, looked up)": "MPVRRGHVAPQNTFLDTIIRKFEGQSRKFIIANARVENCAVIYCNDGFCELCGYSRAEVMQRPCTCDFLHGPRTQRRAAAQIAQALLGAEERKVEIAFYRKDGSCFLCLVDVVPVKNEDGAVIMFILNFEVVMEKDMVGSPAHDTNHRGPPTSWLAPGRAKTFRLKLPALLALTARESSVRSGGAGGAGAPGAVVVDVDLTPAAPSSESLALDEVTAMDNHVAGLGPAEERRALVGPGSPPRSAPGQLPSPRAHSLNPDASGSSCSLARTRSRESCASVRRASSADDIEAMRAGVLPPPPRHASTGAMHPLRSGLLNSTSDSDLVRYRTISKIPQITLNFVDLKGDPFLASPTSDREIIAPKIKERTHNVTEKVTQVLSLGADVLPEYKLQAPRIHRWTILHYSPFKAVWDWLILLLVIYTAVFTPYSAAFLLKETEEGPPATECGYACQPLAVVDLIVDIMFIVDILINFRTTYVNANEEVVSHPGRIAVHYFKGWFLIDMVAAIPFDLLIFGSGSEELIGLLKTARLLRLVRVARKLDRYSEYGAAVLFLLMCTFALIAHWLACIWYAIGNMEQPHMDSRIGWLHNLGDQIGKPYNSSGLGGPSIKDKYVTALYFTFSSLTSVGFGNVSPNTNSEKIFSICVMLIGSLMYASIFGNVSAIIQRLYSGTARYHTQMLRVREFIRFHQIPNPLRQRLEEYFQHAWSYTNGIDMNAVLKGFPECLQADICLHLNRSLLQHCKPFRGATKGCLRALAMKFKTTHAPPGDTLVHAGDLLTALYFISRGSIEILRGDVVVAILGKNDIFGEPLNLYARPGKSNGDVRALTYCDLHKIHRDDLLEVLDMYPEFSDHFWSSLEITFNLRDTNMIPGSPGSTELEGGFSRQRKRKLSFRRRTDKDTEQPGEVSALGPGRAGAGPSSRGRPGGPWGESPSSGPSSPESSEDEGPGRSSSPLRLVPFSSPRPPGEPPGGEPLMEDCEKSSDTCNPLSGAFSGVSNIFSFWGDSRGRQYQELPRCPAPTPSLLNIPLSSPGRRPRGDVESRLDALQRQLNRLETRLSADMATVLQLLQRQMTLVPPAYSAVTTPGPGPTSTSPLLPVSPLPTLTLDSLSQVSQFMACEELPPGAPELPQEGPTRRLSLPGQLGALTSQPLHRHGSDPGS", "assay": "primary screen, population patch clamp on CHO cells stably expressing hERG", "units": {"hERG current change (%, negative = inhibition) at 10uM": "%"}, "values": [
      {"smiles": "Cc1ccc(NC(=O)CN(C)C(=O)c2ccc(-n3cncn3)c([N+](=O)[O-])c2)cc1", "hERG current change (%, negative = inhibition) at 10uM": -49.2},
      {"smiles": "O=C(CC1CCCCC1)N1CCCC(c2nc(-c3ccc(S(=O)(=O)N4CCCC4)cc3)no2)C1", "note": "(centres unmarked)", "hERG current change (%, negative = inhibition) at 10uM": -8.43},
      {"smiles": "COc1ccccc1CC(=O)NC1CCCCCC1", "hERG current change (%, negative = inhibition) at 10uM": 10.9},
      {"smiles": "CCOc1ncccc1C(=O)N(CC)CC(=O)NCc1ccc(Cl)cc1", "hERG current change (%, negative = inhibition) at 10uM": 1.69},
      {"smiles": "O=C(O)CSCc1cnn(-c2ccccc2)c1-n1cccc1", "hERG current change (%, negative = inhibition) at 10uM": -5.58},
      {"smiles": "O=C(COC(=O)Cc1n[nH]c(=O)c2ccccc12)Nc1c(Cl)cccc1C(F)(F)F", "hERG current change (%, negative = inhibition) at 10uM": 12.2},
      {"smiles": "Cc1ccc(NC(=O)CCN2C(=O)c3ccccc3S2(=O)=O)cc1C", "hERG current change (%, negative = inhibition) at 10uM": -18},
      {"smiles": "O=C(O)c1ccc(N/N=C/C=C/c2ccccc2)cc1", "hERG current change (%, negative = inhibition) at 10uM": 15.7},
      {"smiles": "CCCCCC(=O)Nc1cccc(C2=NOC3(C2)C[C@H](C(N)=O)N(C(=O)COc2ccc(Cl)cc2)C3)c1", "note": "(some centres unmarked)", "hERG current change (%, negative = inhibition) at 10uM": -22},
      {"smiles": "COC(=O)CCCC1=CC2=CC(=O)C(C)(OC(=O)c3cccs3)C(=O)C2=CN1c1ccccc1", "note": "(centres unmarked)", "hERG current change (%, negative = inhibition) at 10uM": -5.86},
      {"smiles": "CSC1=NCCN1C(=O)c1cccc(C(F)(F)F)c1", "hERG current change (%, negative = inhibition) at 10uM": 6.83},
      {"smiles": "COc1cccc(NC(=O)CCCCCn2nnc3ccccc3c2=O)c1", "hERG current change (%, negative = inhibition) at 10uM": -5.76},
      {"smiles": "Cc1ccc(C(=O)N2CCC3(CC2)Oc2ccc(F)cc2C(=O)C32CC(c3cccnc3)=NO2)s1", "note": "(centres unmarked)", "hERG current change (%, negative = inhibition) at 10uM": -2.48},
      {"smiles": "CN(C)CCN1C(=O)NC(C)(c2ccc([N+](=O)[O-])cc2)C1=O", "note": "(centres unmarked)", "hERG current change (%, negative = inhibition) at 10uM": -11.3},
      {"smiles": "CCN(/C=N/c1sc2c(c1C#N)CCCCC2)CC", "hERG current change (%, negative = inhibition) at 10uM": 5.56},
      {"smiles": "COC(=O)c1ccccc1NC(=O)NN1CCN(C)CC1", "hERG current change (%, negative = inhibition) at 10uM": -14.5},
      {"smiles": "Cc1ccccc1OCC(=O)OCC(=O)NCC1CCCO1", "note": "(centres unmarked)", "hERG current change (%, negative = inhibition) at 10uM": 20.6},
      {"smiles": "Nc1cccc(-c2nnc3n2CCCCC3)c1", "hERG current change (%, negative = inhibition) at 10uM": 1.48},
      {"smiles": "CC(CC(=O)Nc1ccc(S(=O)(=O)Nc2ncccn2)cc1)c1ccccc1", "note": "(centres unmarked)", "hERG current change (%, negative = inhibition) at 10uM": 6.78},
      {"smiles": "N#C/C(=C(/O)COC(=O)Cc1c[nH]c2ccccc12)c1nc2ccccc2[nH]1", "hERG current change (%, negative = inhibition) at 10uM": 14.2},
      {"smiles": "Cc1sc(NC(=O)c2c(F)cccc2F)nc1-c1ccccc1", "hERG current change (%, negative = inhibition) at 10uM": 11.9},
      {"smiles": "CC(C(=O)NC(C)(C)C)N1C(=O)c2cccc3cccc(c23)C1=O", "note": "(centres unmarked)", "hERG current change (%, negative = inhibition) at 10uM": 9.11},
      {"smiles": "O=C1C(CCCNC(=S)NCc2ccccc2)NC(=S)N1Cc1ccccc1", "note": "(centres unmarked)", "hERG current change (%, negative = inhibition) at 10uM": 2.97},
      {"smiles": "COc1cnc(SCc2ccc(Cl)cc2)nc1Cl", "hERG current change (%, negative = inhibition) at 10uM": 12.5},
      {"smiles": "CCOC(=O)C1=C(C)N2C(=C(C#N)[C@@H]1c1ccc(C(=O)OC)cc1)SC[C@@]2(O)C(C)(C)C", "hERG current change (%, negative = inhibition) at 10uM": 6.91},
      {"smiles": "N/C(=N\\OC(=O)Cc1ccc(-c2ccccc2)cc1)c1cccnc1", "hERG current change (%, negative = inhibition) at 10uM": -1.07},
      {"smiles": "N#C/C(=N\\Nc1cccc(F)c1)C(=O)C1CC1", "hERG current change (%, negative = inhibition) at 10uM": 13.8},
      {"smiles": "CCN1CCN(c2ccc(S(=O)(=O)N3CCCCC3)cc2NC(=O)COc2ccc(Cl)cc2)CC1", "hERG current change (%, negative = inhibition) at 10uM": -15.2},
      {"smiles": "CN(Cc1cn(-c2ccccc2)nc1-c1ccc2c(c1)OCO2)Cc1nccn1C", "hERG current change (%, negative = inhibition) at 10uM": -16.1},
      {"smiles": "Cc1ccc(-c2[nH]c(=S)[nH]c(=O)c2C#N)cc1", "hERG current change (%, negative = inhibition) at 10uM": 17.4},
      {"smiles": "CC1CCN(c2c(NCC3CCC(C(=O)Nc4ccccn4)CC3)c(=O)c2=O)CC1", "note": "(centres unmarked)", "hERG current change (%, negative = inhibition) at 10uM": 16.2},
      {"smiles": "CCOc1ccc(-c2cc(C(=O)NCCCN3CCOCC3)c3ccccc3n2)cc1", "hERG current change (%, negative = inhibition) at 10uM": -13.3},
      {"smiles": "CCOC(=O)C(O)(NC(=O)c1cccnc1)C(F)(F)F", "note": "(centres unmarked)", "hERG current change (%, negative = inhibition) at 10uM": 5},
      {"smiles": "COc1ccc(OC)c(N(C(=O)c2ccco2)C(C(=O)NC2CCCC2)c2cc(OC)c(OC)c(OC)c2)c1", "note": "(centres unmarked)", "hERG current change (%, negative = inhibition) at 10uM": 2.89},
      {"smiles": "Cc1cc(C(C)(C)C)cc(S(=O)(=O)NCCO)c1C", "hERG current change (%, negative = inhibition) at 10uM": 4.13},
      {"smiles": "CC(C)(C)c1ccc(OC(=O)c2ccc3snnc3c2)cc1", "hERG current change (%, negative = inhibition) at 10uM": 20.4},
      {"smiles": "CSCC[C@H](NC(=O)[C@@H]1Cc2ccccc2CN1)C(=O)NC1CCCC1", "hERG current change (%, negative = inhibition) at 10uM": -4.7},
      {"smiles": "CC(C)(C)OC(=O)N1CCC(C(N)=O)CC1", "hERG current change (%, negative = inhibition) at 10uM": 4.69},
      {"smiles": "O=C1C(=O)N(CCCN2CCOCC2)C(c2ccc(F)cc2)/C1=C(\\O)c1ccc2c(c1)OCCO2", "note": "(centres unmarked)", "hERG current change (%, negative = inhibition) at 10uM": 12.5},
      {"smiles": "O=C(O)c1cccnc1SCc1cn2cc(Br)ccc2n1", "hERG current change (%, negative = inhibition) at 10uM": 18.4},
      {"smiles": "C/C(CC(=O)Nc1cccc(C(F)(F)F)c1)=N\\NC(=O)c1cnccn1", "hERG current change (%, negative = inhibition) at 10uM": 0.101},
      {"smiles": "O=C(c1ccco1)N1CCN(S(=O)(=O)/C=C/c2ccccc2)CC1", "hERG current change (%, negative = inhibition) at 10uM": -38.3},
      {"smiles": "COc1cccc(-c2nc(NC3CCCC3)c3ccccc3n2)c1O", "hERG current change (%, negative = inhibition) at 10uM": 25.7},
      {"smiles": "O=C(O)CCc1ccc(-c2ccc(Br)cc2)o1", "hERG current change (%, negative = inhibition) at 10uM": 16.1}
    ]}
  ]
}
